Measurements from PubChem BioAssay (NCATS).
The shares of active, inactive and inconclusive entries below differ from those in the screen. For part of these data: Potencies of inconclusive entries are left out as doubtful fits. Active and inactive are the calls of the source. Unless noted, calls come from the whole dose curve; as a rule, active = well fitted curve in the direction sought with a large enough effect; inconclusive = small, poorly fitted or top-dose-only effect, or another doubt; inactive = no such curve, though single readings can be large; an effect the other way counts as inactive or inconclusive.

Experiments:
[1] = NS1 protein of Zika virus - qHTS assay to identify small molecule inhibitors in human HEK 293 cells (AID 1347053);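 note: plate controls were infected untreated cells for no effect and uninfected cells for full effect; nearly all actives have a fitted effect of over 55% in size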
Summary of the method: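 TR-FRET signal from two anti-ZIKV NS1 antibodies quantified NS1 in HEK 293 cells 24 h after MR766 infection at MOI = 0.5; compounds were added 1 h before virus. Uninfected cells and infected cells defined the NS1 normalization range.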

[2] = qHTS of pediatric cancer cell lines to identify multiple opportunities for drug repurposing: Primary screen for MG 63 (6-TG R) cells (AID 1347105); conditions: MG 63 (6-TG R) viability, CellTiter-Glo, 48 h; activity change, negative = cytotoxic: at 46 µM (top of the series); note: % is set by controls: 0 for no effect and ±100 for the full control effect; nearly all actives have a fitted effect of over 50% in size
Summary of the method: (§1)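 Cells seeded at 500-1,000 cells/well in growth media, rested 5 hours at 37 degrees C, 5% CO2, then dosed; MIPE compounds at 11-point (from 0.78 nM) and NPC at 8-point (from 0.59 nM) final concentrations. Viability by CellTiter-Glo luminescence after 48 hours.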

[3] = Quantitative High-Throughput drug screen in 47 multiple myeloma cell lines against the NCATS MIPE library collection: Delta47_JCRB cell viability assay (AID 1918925; note: nearly all actives have a fitted effect of over 45% in size; note: potency is the fitted concentration of half-maximal effect)
Summary of the method: (§2)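 CellTiter-Glo ATP luminescence gave viability after 48 h compound treatment at 37C of 500 multiple myeloma cells per well. Normalisation used DMSO-only wells as 100% and media-only wells as 0% viability; primary qHTS of approved and investigational drugs.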

[4] = Quantitative High-Throughput drug screen in 47 multiple myeloma cell lines against the NCATS MIPE library collection: Karpas417_ECACC cell viability assay (AID 1918961); conditions: Karpas417 myeloma viability, CellTiter-Glo ATP luminescence, 48 h; viability (% of DMSO): at 45.8 µM (top of the series); note: potency is the fitted concentration of half-maximal effect
Summary of the method: (§3)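 Inhibition of cell viability is measured here. Each line was plated at 500 cells per well, treated with MIPE 4.0 drugs, kept 48 hours at 37C, then assayed for ATP content by CellTiter-Glo luminescence.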

[5] = Quantitative High-Throughput drug screen in 47 multiple myeloma cell lines against the NCATS MIPE library collection: KHM11_PLB cell viability assay (AID 1918962); note: potency is the fitted concentration of half-maximal effect; nearly all actives have a fitted effect of over 35% in size
Summary of the method: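 Approved and investigational drugs from MIPE 4.0 were added by pin tool to 500 cells per well. After 48 hours at 37C, ATP-based CellTiter-Glo luminescence indicated remaining viability.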

[6] = Quantitative High-Throughput drug screen in 47 multiple myeloma cell lines against the NCATS MIPE library collection: JIM1_ECACC cell viability assay (AID 1918964; note: potency is the fitted concentration of half-maximal effect); conditions: JIM1 myeloma viability, CellTiter-Glo ATP luminescence, 48 h; viability (% of DMSO): at 45.8 µM (top of the series)
Summary of the method: as §2

[7] = Quantitative High-Throughput drug screen in 47 multiple myeloma cell lines against the NCATS MIPE library collection: INA6_PLB cell viability assay (AID 1918965; note: nearly all actives have a fitted effect of over 55% in size; note: potency is the fitted concentration of half-maximal effect)
Summary of the method: as §3

[8] = Quantitative High-Throughput drug screen in 47 multiple myeloma cell lines against the NCATS MIPE library collection: JJN3_DSMZ cell viability assay (AID 1918966; note: nearly all actives have a fitted effect of over 50% in size; note: potency is the fitted concentration of half-maximal effect); conditions: JJN3 myeloma cells viability, CellTiter-Glo ATP, 48 h; viability, % of DMSO: at 45.8 µM (top of the series)
Summary of the method: as §2

[9] = Quantitative High-Throughput drug screen in 47 multiple myeloma cell lines against the NCATS MIPE library collection: KMS20_JCRB cell viability assay (AID 1918973); conditions: CellTiter-Glo ATP, 48 h; viability (% of DMSO): at 45.8 µM (top of the series); note: nearly all actives have a fitted effect of over 45% in size; note: potency is the fitted concentration of half-maximal effect
Summary of the method: as §2

[10] = Quantitative High-Throughput drug screen in 47 multiple myeloma cell lines against the NCATS MIPE library collection: MMM1_PLB cell viability assay (AID 1918976); note: nearly all actives have a fitted effect of over 35% in size; note: potency is the fitted concentration of half-maximal effect
Summary of the method: (§4)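 ATP-based luminescence (CellTiter-Glo, 5 min RT incubation) quantified surviving cells following two days' treatment with MIPE 4.0 agents at 37 °C, 5% CO2.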

[11] = Quantitative High-Throughput drug screen in 47 multiple myeloma cell lines against the NCATS MIPE library collection: MOLP8_DSMZ cell viability assay (AID 1918977); conditions: MOLP8 myeloma viability, CellTiter-Glo ATP luminescence, 48 h; viability (% of control): at 45.8 µM (top of the series); note: nearly all actives have a fitted effect of over 45% in size; note: potency is the fitted concentration of half-maximal effect
Summary of the method: as §4

[12] = Quantitative High-Throughput drug screen in 47 multiple myeloma cell lines against the NCATS MIPE library collection: MM1S_ATCC cell viability assay (AID 1918980); note: potency is the fitted concentration of half-maximal effect; nearly all actives have a fitted effect of over 45% in size
Summary of the method: as §4

[13] = Quantitative High-Throughput drug screen in 47 multiple myeloma cell lines against the NCATS MIPE library collection: L363_DSMZ cell viability assay (AID 1918984); conditions: L363 myeloma viability, CellTiter-Glo ATP luminescence, 48 h; viability (% of control): at 45.8 µM (top of the series); note: nearly all actives have a fitted effect of over 40% in size; note: potency is the fitted concentration of half-maximal effect
Summary of the method: as §4

[14] = Quantitative High-Throughput drug screen in 47 multiple myeloma cell lines against the NCATS MIPE library collection: OCIMY5_PLB cell viability assay (AID 1918988); note: nearly all actives have a fitted effect of over 65% in size; note: potency is the fitted concentration of half-maximal effect
Summary of the method: as §4

[15] = Quantitative High-Throughput drug screen in 47 multiple myeloma cell lines against the NCATS MIPE library collection: SKMM1_PLB cell viability assay (AID 1919863); conditions: SKMM1 myeloma viability, CellTiter-Glo ATP, 48 h; viability: stronger effect = lower value; note: nearly all actives have a fitted effect of over 35% in size; note: potency is the fitted concentration of half-maximal effect
Summary of the method: as §4

[16] = Quantitative High-Throughput drug screen in 47 multiple myeloma cell lines against the NCATS MIPE library collection: VP6_DJ cell viability assay (AID 1919867); note: nearly all actives have a fitted effect of over 40% in size; note: potency is the fitted concentration of half-maximal effect
Summary of the method: as §4

[17] = Quantitative High-Throughput drug screen in 47 multiple myeloma cell lines against the NCATS MIPE library collection: UTMC2_PLB cell viability assay (AID 1919868); conditions: CellTiter-Glo ATP luminescence, 48 h; viability (% of DMSO control): at 45.8 µM (top of the series); note: potency is the fitted concentration of half-maximal effect; nearly all actives have a fitted effect of over 55% in size
Summary of the method: as §4

[18] = target: Cytochrome P450 1A2 (Homo sapiens) (UniProt P05177); assay: p450-cyp1a2 (AID 410; calls by dose curve; note: potency is the fitted concentration of half-maximal effect)
Summary of the method: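 20nM CYP1A2, 100uM Luciferin-ME (=Km), 100mM KPO4; cpd 10 min RT; +NADPH regen, 60 min RT; stop/detect 20 min; luminescence. Normalized to furafylline 57 uM = full inhibition.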

[19] = target: Peptidyl-prolyl cis-trans isomerase NIMA-interacting 1 (Homo sapiens) (UniProt Q13526); assay: qHTS Validation Assay to Find Inhibitors of Pin1 (AID 504536; active = well fitted inhibition curve with a large enough effect in the polarisation, with a control signal flat, not every such curve was filed as active; inconclusive = small, poorly fitted or top-dose-only effect, or effect the other way; the % refers to the polarisation; note: potency is the fitted concentration of half-maximal effect)
Summary of the method: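 Fluorescence polarization competition: compounds (titration) displace HiFluor-488-labeled Pin1-1b peptide from Pin1 (0.3 uM final) in pH 7.5 HEPES buffer with DTT, 10 min at room temperature; %Activity normalized to no-enzyme wells, curves fitted.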

[20] = qHTS of pediatric cancer cell lines to identify multiple opportunities for drug repurposing: Primary screen for BT-37 cells (AID 1347094); note: potency is the fitted concentration of half-maximal effect;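 for activity change, negative = cytotoxic: plate controls were DMSO for no effect and bortezomib for full effect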
Summary of the method: as §1
Tags give direction and shape of the fitted curve or compound fluorescence and quenching.

Sequence of UniProt P05177 (P05177 whole entry, looked up): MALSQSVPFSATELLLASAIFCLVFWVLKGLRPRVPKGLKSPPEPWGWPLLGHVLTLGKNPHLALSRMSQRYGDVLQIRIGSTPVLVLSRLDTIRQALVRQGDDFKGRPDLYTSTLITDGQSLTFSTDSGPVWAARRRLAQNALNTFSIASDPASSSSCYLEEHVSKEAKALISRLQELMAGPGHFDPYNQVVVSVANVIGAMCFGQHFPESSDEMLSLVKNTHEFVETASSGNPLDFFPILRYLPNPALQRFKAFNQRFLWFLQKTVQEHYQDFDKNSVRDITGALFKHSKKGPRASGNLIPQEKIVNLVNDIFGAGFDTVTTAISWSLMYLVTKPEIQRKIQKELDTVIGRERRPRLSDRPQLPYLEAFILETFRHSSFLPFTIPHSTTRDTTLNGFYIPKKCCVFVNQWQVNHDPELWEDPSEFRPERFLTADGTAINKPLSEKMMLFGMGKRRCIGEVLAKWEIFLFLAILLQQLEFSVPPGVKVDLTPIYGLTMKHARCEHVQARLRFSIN
Sequence of UniProt Q13526 (Q13526 whole entry, looked up): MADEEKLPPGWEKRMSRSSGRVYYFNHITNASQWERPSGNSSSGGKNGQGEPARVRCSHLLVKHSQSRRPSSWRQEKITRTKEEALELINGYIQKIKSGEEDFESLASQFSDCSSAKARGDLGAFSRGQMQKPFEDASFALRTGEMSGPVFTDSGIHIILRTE

COc1c(N2C[C@@H]3CCCN[C@H]3C2)c(F)cc2c(=O)c(C(=O)O)cn(C3CC3)c12
Potency [1]: inactive | Potency [2]: inactive | Potency [3]: inactive | Potency [4]: inconclusive [cytotoxic, partial curve, poor fit] | Potency [5]: inconclusive [cytotoxic, partial curve, poor fit] | Potency [6]: inconclusive [rising, full curve, poor fit] | Potency [7]: inconclusive [rising, full curve, poor fit] | Potency [8]: inconclusive [cytotoxic, partial curve, poor fit] | Potency [9]: inactive | Potency [10]: inactive | Potency [11]: inconclusive [cytotoxic, full curve, poor fit] | Potency [12]: inconclusive [rising, full curve, poor fit] | Potency [13]: inconclusive [cytotoxic, partial curve, poor fit] | Potency [14]: inconclusive [cytotoxic, single point] | Potency [15]: inconclusive [cytotoxic, partial curve, poor fit] | Potency [16]: inconclusive [rising, full curve, poor fit] | Potency [17]: inconclusive [rising, full curve, poor fit]

CN=C(NC#N)NCCSCc1nc[nH]c1C
Potency [18]: inconclusive [decreasing] | Potency [19]: inactive

O=C(O)[C@H](O)c1ccccc1
Potency [20]: inconclusive [cytotoxic, single point]

CCCCCCCCCCCCCCCC(=O)O
Potency [2]: inactive

CN(C)C(=O)Oc1ccc[n+](C)c1
Potency [20]: inactive

CC(C)(Oc1ccc(Cl)cc1)C(=O)O
Potency [1]: inactive

Cc1cc(NC(=O)C2=C(O)c3ccccc3S(=O)(=O)N2C)no1
Potency [20]: inactive | Potency [2]: inactive

NS(=O)(=O)c1cc2c(cc1C(F)(F)F)NCNS2(=O)=O
Potency [1]: inactive

NCCCC(=O)O
Potency [18]: inconclusive [decreasing] | Potency [19]: inactive

C[N+](C)(C)CCOP(=O)(O)OP(=O)([O-])OC[C@H]1O[C@@H](n2ccc(N)nc2=O)[C@H](O)[C@@H]1O
Potency [19]: inconclusive [falling, single point]

O=C(O)CO.[NH2-].[NH2-].[Pt+2]
Potency [3]: inconclusive [rising, full curve, poor fit] | Potency [4]: inconclusive [cytotoxic, full curve, poor fit] | Potency [5]: inconclusive [rising, full curve, poor fit] | Potency [6]: inactive | Potency [7]: inconclusive [rising, partial curve, poor fit] | Potency [8]: inactive | Potency [9]: inconclusive [cytotoxic, full curve, poor fit] | Potency [10]: inconclusive [rising, full curve, poor fit] | Potency [11]: inconclusive [rising, partial curve, poor fit] | Potency [12]: inconclusive [rising, full curve, poor fit] | Potency [13]: inactive | Potency [14]: inconclusive [cytotoxic] | Potency [15]: inconclusive [rising, full curve, poor fit] | Potency [16]: inactive | Potency [17]: inconclusive [rising, full curve, poor fit]

CN1c2cc(O)c(N=NC(N)=O)cc2CC1S(=O)(=O)O (stereo not given)
Potency [3]: inconclusive | Potency [4]: inconclusive [cytotoxic, full curve, poor fit] | Potency [5]: inconclusive [rising, full curve, poor fit] | Potency [6]: inactive | Potency [7]: inactive | Potency [8]: inconclusive [rising, full curve, poor fit] | Potency [9]: inactive | Potency [10]: inconclusive [rising, full curve, poor fit] | Potency [11]: inactive | Potency [12]: inconclusive [rising, full curve, poor fit] | Potency [13]: inactive | Potency [14]: inactive | viability [15]: inactive: 97.7% | Potency [16]: inactive | Potency [17]: inconclusive [rising, full curve, poor fit]

CN1C(=O)OC(C)(C)C1=O
Potency [18]: inactive
